These results are taken from PubChem BioAssay AID1963576 (National Center for Advancing Translational Sciences (NCATS), 2024).

Out of some 46,000 compounds screened, about 60 (0.1%) were called active. About 3% were inconclusive and are not listed. Calls follow the shape of the dose curve; as a rule, active = well fitted inhibition curve with a large enough effect; inconclusive = small, poorly fitted or top-dose-only effect; inactive = no such curve, though single readings can be large or run the other way. This is one part of the list.

A short description of this assay: Primary qHTS assay for Inhibitors of ovarian cancer metastasis using an organotypic tumor microenvironment (TME) model. Also: nearly all actives have a fitted effect of over 65% in size.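 As to activity change, negative = inhibition: plate controls were DMSO wells for no effect and tomatine positive control wells for full effect.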 To be noted: SKOV3ip1-GFP adhesion/invasion on 3D omental model, fluorescence; series mostly up to 45.8 µM; activity change, negative = inhibition: at the top concentration. Put shortly: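 A 3D layer of primary human omental fibroblasts, mesothelial cells, fibronectin and collagen I, grown 48 hr, received SKOV3ip1-GFP cells in serum-free medium plus compounds at 0.36-46 umol/L. After 2 hr RT and 16 hr 37 C, fixed adherent GFP cells were counted; normalized to DMSO and tomatine.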
On to `Cc1cccc(NC(=O)Cn2c(=O)n(-c3ccccc3Cl)c(=O)c3c(C)c(C(=O)N(C)C)sc32)c1`, for which the “activity change, negative = inhibition” value is inactive: -14.5%.

`Cc1nc2c(C(=O)NCCc3ccc(Cl)cc3)cnn2c(C)c1Cc1c(F)cccc1Cl`: the “activity change, negative = inhibition” value was inactive: -1.99%.

Take `CCOC(=O)c1ccc(NC(=O)CN(c2ccc(C)cc2)S(=O)(=O)c2c(C)noc2C)cc1`: the “activity change, negative = inhibition” value is inactive: -6.98%.

Regarding `CC(=O)Nc1c(C)nn(-c2ccccc2)c1N1CCC(C(=O)NCc2ccc(Cl)cc2)CC1`, the “activity change, negative = inhibition” value was inactive: 2.49%.

On to `Cc1cc(C)cc(N2CC(c3nc(-c4ccccc4C)no3)CC2=O)c1` (stereo not given), for which the “activity change, negative = inhibition” value is inactive: 1.32%. `Cc1cccc(C(=O)Nc2ccc(-c3nc4ccccc4s3)cc2Cl)c1`: the “activity change, negative = inhibition” value was inactive: -12.4%.

Regarding `CCCCNC(=O)C(CC)Sc1nnc(-c2cccc(F)c2)c(-c2cccc(F)c2)n1` (stereo not given), the “activity change, negative = inhibition” value was inactive: -0.947%. As for `COc1ccc2oc(=O)cc(CN3CCN(c4ccc(F)cc4)CC3)c2c1`, the “activity change, negative = inhibition” value was inactive: -10.7%. As to `CCCCOC(=O)c1ccc(Nc2ncnc3[nH]ncc23)cc1`, the “activity change, negative = inhibition” value is inactive: -20.7%.

Take `COc1ccc(CCC(=O)NC2CC(=O)N(c3ccc(C)cc3)C2)cc1` (stereo not given): the molecule was called inactive.

As for `CCOC(=O)c1ccc(CN(Cc2ccccc2)S(=O)(=O)c2ccc(C)cc2)cc1`, the “activity change, negative = inhibition” value was inactive: -29.4%. The same measure, in the same setting: the same measure for `COc1ccc(NC(=O)C2=CC(c3cccs3)=NS(=O)(=O)N2C)cc1`: inactive: 0.184%; for `CC(C)N(CCCNC(=O)Nc1ccc(C(C)(C)C)cc1)C[C@H]1O[C@@H](n2cc(Br)c3c(N)ncnc32)[C@H](O)[C@H]1O`: inactive: -26%.

For `Cc1ccc(NC(=O)CN2C(=O)CCSc3ccc(S(=O)(=O)N4CCCC4)cc32)cc1`, the result was inactive. With `COc1ccc(CC(=O)Nc2nc3c(s2)CC(C(C)(C)C)CC3)cc1` (stereo not given), the “activity change, negative = inhibition” value is inactive: -1.39%. On to `Cc1ccccc1CNC(=O)C(C)n1nc(C)n2c(cc3occc32)c1=O` (stereo not given), for which the result was inactive.

`CCn1c(CNC(=O)c2ccc(OC)cc2)nnc1SCC(=O)Nc1ccc(OC)cc1`: the molecule was classed as inactive.

As for `Cc1ccc(-c2nc3c(c(SCC(=O)N4CCCCC4)n2)Cc2cc(C)ccc2O3)cc1`, the “activity change, negative = inhibition” value was inactive: -1.43%. Regarding `CCc1ccc(-c2nc(CSCC(=O)NCc3ccccc3OC)c(C)o2)cc1`, the result was inactive. In the case of `CCOc1ccc(CC(=O)Nc2ccc3nc(N4CCCCC4)cc(C)c3c2)cc1OCC`, the “activity change, negative = inhibition” value was inactive: 5.82%. Turning to `CCOC(=O)c1cccc(NC(=O)CSc2ncc3c(n2)-c2ccccc2N(C)S3(=O)=O)c1`, the “activity change, negative = inhibition” value was inactive: 0.987%. Same read-out and setting: then `COc1ccccc1CNC(=O)C(Cc1ccccc1)NS(=O)(=O)c1ccc2c(c1)oc(=O)n2C` (stereo not given), with inactive: 1.57%. For `COc1ccc(-c2nc3scc(CCNS(=O)(=O)c4ccc(F)cc4F)n3n2)cc1OC`, the molecule was called inactive.

Turning to `CC(C)NC(=O)Nc1ccc2c(c1)N(C)C(=O)c1ccccc1S2`, the “activity change, negative = inhibition” value is inactive: 2.3%. As for `O=C(NCCc1ccccc1)c1ccc2c(c1)N(Cc1ccccc1Cl)C(=O)c1ccccc1S2`, the result was inactive. `Cc1nn(Cc2noc(C(=O)NCc3ccc(F)cc3)n2)c(C)c1Br`: the “activity change, negative = inhibition” value was inactive: -7.87%. Take `CCc1nnc(NC(=O)CSc2nc3c([nH]c4ccccc43)c(=O)n2-c2cc(C)cc(C)c2)s1`: the “activity change, negative = inhibition” value was inactive: 6.81%. In the case of `CC1CCCCN1Cc1c(O)ccc2c(=O)c(-c3cccc(Cl)c3)c(C(F)(F)F)oc12` (stereo not given), the “activity change, negative = inhibition” value is inactive: -9.49%. Take `O=C1CC(c2nc3ccccc3n2CCCCOc2ccccc2)CN1c1ccccc1Cl` (stereo not given): the call was inactive. For the molecule `Cc1ccc(-c2noc(COc3ccc(Br)c(C)c3)n2)cc1`, the “activity change, negative = inhibition” value is inactive: -1.79%. Regarding `CCOc1ccc(Cn2c(=O)oc3ccccc32)cc1`, the result was inactive. As to `O=C(C1CCC(CNS(=O)(=O)c2ccc(Br)s2)CC1)N1CCN(c2ccccc2)CC1` (stereo not given), the “activity change, negative = inhibition” value was inactive: -0.148%. As to `COc1ccc(-n2ncc3c(N4CCN(c5cccc(C)c5)C(C)C4)ncnc32)cc1` (stereo not given), the result was inactive. For `Cc1nnc(SCc2cc(=O)n3c(C)cccc3n2)s1`, the “activity change, negative = inhibition” value was inactive: -2.72%. On to `Clc1cccc(CNc2ncnc3c2nc2n3CCCC2)c1`, for which the “activity change, negative = inhibition” value was inactive: 4.49%. `Cc1c(C(=O)N2CCCC2)oc2c1-c1nn(CC(=O)NCc3cccc(Br)c3)cc1CC2`: the outcome was inactive. For `NS(=O)(=O)c1ccc(NC(=O)CCn2c(=O)oc3ccccc32)cc1`, the call was inactive. Consider `O=C(Cn1c(=O)n(Cc2ccc3c(c2)OCO3)c(=O)c2ccccc21)Nc1cccc(Cl)c1`, for which the result was inactive. Take `COc1ccc(Cl)cc1NC(=O)CCc1nc(-c2ccccc2F)no1`: the “activity change, negative = inhibition” value was inactive: -26.9%. On to `Cn1cc(C2=C(c3c4n(c5ccccc35)CCC(CN)C4)C(=O)NC2=O)c2ccccc21` (stereo not given), for which the “activity change, negative = inhibition” value is inactive: -21.6%. For the molecule `CCOc1ccc(N(C)S(=O)(=O)c2ccc3c(c2)C(C)(C)C(=O)N3C)cc1`, the result was inactive. As for `CCOc1ccc(N2CC(c3nc(-c4cc(OC)c(OC)c(OC)c4)no3)CC2=O)cc1` (stereo not given), the “activity change, negative = inhibition” value was inactive: 4.28%.

On to `Cn1c(=O)oc2cc(S(=O)(=O)CCC(=O)NCc3ccccc3)ccc21`, for which the molecule was called inactive. Consider `COc1ccc(CSc2nc3ncccc3[nH]2)cc1`, for which the call was inactive. Regarding `Cc1ccc(C)c(NC(=O)C2CCCN(S(=O)(=O)c3c(C)noc3/C=C/N(C)C)C2)c1` (stereo not given), the “activity change, negative = inhibition” value is inactive: -16.9%. `Cc1ccc(-n2nnc3c(sc4nc(C)c(C)cc43)c2=O)cc1Cl`: the “activity change, negative = inhibition” value is inactive: 7.95%. On to `COCCNC(=O)C1CCN(S(=O)(=O)c2ccc3c(c2)CCCN3C(C)=O)CC1`, for which the “activity change, negative = inhibition” value is inactive: 11.1%. The same measure, in the same setting: then `O=C1C(CCC(O)c2ccc(F)cc2)C(c2ccc(O)cc2)N1c1ccc(F)cc1` (stereo not given), with inactive: 4.93%; and `CCOC(=O)c1[nH]c(C)c(CCC(=O)N2CCN(c3ccccc3)CC2)c1C`, with inactive: 3.65%. Turning to `COc1ccc(-c2nc3n(n2)C(c2ccc(OC)cc2)C(C(=O)Nc2cccnc2)=C(C)N3)cc1` (stereo not given), the “activity change, negative = inhibition” value was inactive: 4.22%.

With `CC(=O)OCC#CCSc1nnc(-c2cccc(Br)c2)o1`, the “activity change, negative = inhibition” value was inactive: -7.01%. Turning to `CCOC(=O)c1c(C)oc2nc(C)nc(NCC3CCN(Cc4ccc(Cl)cc4)CC3)c12`, the “activity change, negative = inhibition” value was inactive: 0.36%. Consider `CCN(c1ccccc1)S(=O)(=O)c1nnc(NC(=O)COc2ccc(OC)cc2)s1`, for which the outcome was inactive.

For the molecule `O=C(NC1CCCC1)c1c[nH]c2ccc(S(=O)(=O)Nc3cccc(C(F)(F)F)c3)cc2c1=O`, the outcome was inactive. As to `COc1cccc(N2CC(NC(=O)c3ccc(S(=O)(=O)N4CCCC4)cc3)CC2=O)c1` (stereo not given), the outcome was inactive.

Turning to `CCCCN1CC(c2nc3ccccc3n2CCCCOc2c(C)cccc2C)CC1=O` (stereo not given), the outcome was inactive. With `COCCCNC(=O)Cn1c(=O)n(CCCC(=O)NCc2ccc(C)cc2)c(=O)c2ccccc21`, the “activity change, negative = inhibition” value is inactive: -8.42%. For `CCCC(=O)N(c1ccc2oc(-c3ccccc3)c(C(=O)OCC)c2c1)S(=O)(=O)c1ccc(C)cc1`, the “activity change, negative = inhibition” value was inactive: -1.61%. With `Cc1ccc(/C=C(\C#N)c2nc(-c3cc4c(ccc5ccccc54)oc3=O)cs2)cc1`, the “activity change, negative = inhibition” value was inactive: 4.7%. Consider `O=C(NCC(c1ccc2c(c1)OCO2)N1CCOCC1)c1ccc(F)cc1` (stereo not given), for which the “activity change, negative = inhibition” value is inactive: -39.9%.
